Data as given in the supplement of paper PMC3334620.
In all, about 33,000 sequences were measured (“E-score (-0.5 to 0.5)”: median about -0.013, highest 2% from about 0.3 on). The list shows a part of the results.

target: T1, Msn1 (UniProt P22148); experiment: PBM E-score (8-mer binding enrichment) (E-score (-0.5 to 0.5)); higher = stronger / more preferred TF binding; most listed sequences are background and not binding sites; conditions: protein concentration: 200 nM; construct: GST-full length
T1 sequence: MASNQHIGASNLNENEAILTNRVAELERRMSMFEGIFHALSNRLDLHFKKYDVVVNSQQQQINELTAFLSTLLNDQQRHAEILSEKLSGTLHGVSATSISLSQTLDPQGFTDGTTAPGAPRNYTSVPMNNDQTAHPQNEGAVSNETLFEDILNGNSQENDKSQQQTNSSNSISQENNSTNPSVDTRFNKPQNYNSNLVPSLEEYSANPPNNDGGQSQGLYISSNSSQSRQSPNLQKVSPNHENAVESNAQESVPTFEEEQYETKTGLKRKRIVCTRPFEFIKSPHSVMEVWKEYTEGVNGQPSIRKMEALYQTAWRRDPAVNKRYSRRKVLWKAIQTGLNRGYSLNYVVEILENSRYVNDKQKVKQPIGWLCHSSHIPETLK
Experimental: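 Universal 'all 10-mer' protein binding microarrays (Agilent AMADID 015681) probed with GST-tagged S. cerevisiae TFs (full-length or DBD) made by in vitro transcription/translation (PURExpress), about 100-200 nM. Bound TF was detected with fluorescent anti-GST. Each ungapped 8-mer (which stands for itself and its reverse complement) is scored by the PBM enrichment score (E-score), a modified Wilcoxon-Mann-Whitney statistic from -0.5 to +0.5, computed with the Universal PBM Analysis Suite. Scale: above 0.35 generally sequence-specific binding.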

Sequence | PBM E-score
CTAACGCC | 0.0406
ATCAGTGG | -0.184
GTGGGATA | -0.0948
ACATTGGG | 0.097
CCATGAGA | 0.00391
GCTATGTA | -0.00603
AGGGTTAT | 0.0362
AGTGCACA | -0.153
AATATGGC | -0.0707
AGCCTGTC | -0.0726
CAAAATGC | 0.124
CTACGGAG | -0.141
GCCAGACC | -0.164
CGGGATAG | 0.0061
AGGGCTTG | -0.0956
CAAGCTAC | -0.184
ATCGTTTA | 0.141
AGCTGGAG | -0.251
ATGCGCCC | -0.0106
ATGAAGGG | -0.242
TGAATAAA | 0.0805
GACAGTAA | 0.00864
CGTTGGGA | 0.0807
ACAACGAA | 0.12
ACAATTCC | 0.163

Sequence | PBM E-score
GCCCAGGC | -0.225
ACTGCAAT | -0.0168
CGCCGAAG | 0.0653
ACCACTGG | 0.138
CGACCACA | -0.135
AGCAGCAG | 0.0717
ACTCGCGA | 0.224
GACGCGCC | -0.00097
AACATAAT | 0.231
ATTATGGC | 0.00016
GTGGTATA | 0.079
CAAAATGA | 0.139
CCCCCTGA | -0.4
ACGAGCAA | -0.0242
CCTTATCC | -0.126
AGGGGGCA | -0.378
ATCTGTTA | 0.183
CGATCCCA | -0.0985
AAGAAACT | 0.0808
ACCATGAG | -0.147
CTATCGTA | 0.0396
AGATCCTC | -0.125
CAATTTTC | 0.0166
CAATGAAC | -0.0298
ACACCACG | -0.091

Sequence | PBM E-score
ATCTCAAC | 0.0953
ACAGGGTG | -0.176
CCCTATTA | -0.0488
AGAGCGCG | 0.0616
CAGGCCAA | -0.204
GAATCAGC | -0.0512
ATATTGGG | 0.0534
CCAAAGCG | -0.0329
CATGTCAA | 0.236
AGTTAACT | -0.007
AATGACCC | -0.145
CCCCTATA | -0.235
AATACGCG | 0.0996
TATCATCA | 0.0286
CATCGAAA | -0.0139
ACTCGATA | -0.055
AATGTCGG | 0.33
ACAGAGCC | -0.0387
CCGTGTCG | 0.00655
GGCGTTAA | -0.112
ACAGCGGT | -0.0473
GTCAACTA | 0.0539
ATCACGGA | 0.136
CTACGTCA | -0.117
CACGTTAG | -0.104

Sequence | PBM E-score
CACCAATC | -0.145
ACGAGTCT | -0.0682
CTGGCAGA | -0.0414
AGATCCCA | -0.103
AGACGCTC | 0.0257
CTATCACC | -0.23
CTTCTTGA | 0.0621
CTTTACAA | -0.147
TATGTCGA | 0.289
CTCGTTAC | -0.0524
AAATACGT | 0.0253
CTCTGCGA | 0.0385
AACGAACG | 0.0498
CTTGTCTA | 0.324
AAGGCTCC | -0.319
CCGACCCC | -0.354
GGAGTCAA | -0.259
AGATTGTC | 0.369
ACCAGAGA | -0.0229
GTTAACGA | 0.0125
CAGCTGGA | 0.0641
ACTGGACG | 0.0533
GGCGAATA | -0.0359
GCACTAAA | 0.132
AGTATTAT | 0.15

Sequence | PBM E-score
AACTATGG | -0.144
GCTAGGCC | -0.11
AGAACTTC | -0.048
CTATTTGA | 0.0663
AACTAGGA | 0.154
CCCACCCA | -0.197
GAAGATAC | 0.0257
TAATGTCA | 0.259
AGGACAGG | 0.28
CAAAAATG | 0.185
AAAGGTTG | -0.101
CCTGACGC | -0.332
CATCTACC | -0.0491
ATAGTGCG | -0.109
AACACGGA | 0.108
ACTAAGTA | 0.0761
AGGTATGC | 0.0977
AAGGGCGC | -0.0787
CCGGCCAC | -0.0999
TAAATAAA | 0.273
CAGCGTTA | -0.131
CGGACTTA | 0.215
GCAGGCGA | -0.00145
GACAGGTC | -0.0396
TCGGAGAA | -0.00799

Sequence | PBM E-score
ACTGGGGC | -0.212
CGACGAGC | -0.0652
CCTTAAGC | -0.104
AGGACATG | 0.484
TCGAGCAA | -0.0738
GGCTGACC | -0.177
ATAGGCGA | 0.044
CGTTAGTA | -0.0293
GATAACCA | -0.099
CGGTCTAC | -0.0144
AACAATCG | -0.0344
CGTCCGAG | 0.0727
AACTAGTG | -0.014
AGACCTAG | -0.0169
AGTCGGGG | -0.184
CAATCCTA | -0.0742
ACAGTAAC | 0.0766
CCCCTAGC | -0.414
GGCACGCA | -0.215
CACTGCTA | 0.0351
ACGCGGGG | -0.0632
CCATAGCA | -0.196
ATAAAACA | 0.115
CGCCACAC | -0.0716
ACCTCGTA | -0.061

Sequence | PBM E-score
TAGGGGCA | -0.254
GCTCTTCA | -0.0559
CTTTAAAC | 0.0897
CGGATGAA | 0.215
CATACTCA | 0.0936
AGTCGGGA | 0.0332
AACCCGGC | -0.114
GACTGCGC | -0.199
ATGTAGAG | -0.0694
ATCCATCG | -0.0899
CACAATGA | 0.117
CAAAATTG | 0.243
CCCTCTAG | -0.306
AGTCTGCA | -0.0414
ATCATATG | 0.264
AAGTCTGG | 0.0232
CAGCAGCA | -0.118
GATAACGA | 0.0435
GACTCGCA | -0.107
ATGCTGCG | -0.0938
AATGGCGG | -0.00311
CTCAAACC | -0.00631
